# Measurements as given in the supplement of paper PMC12355420.
# Structures can show the parent of a compound that is named as a salt. This is one part of the list. No stated cut-off is given here; in the data, active = 0.5 or less and inactive = the rest. Repeats are few or missing, and single values can be far off.
# Test system: HeLa VPS33A reporter cells;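 further: primary screen of an FDA-approved drug library in HeLa reporter cells in 96-well format, CellMask signal normalized to DMSO-treated wells set as 1, under 0.5 deemed highly cytotoxic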
# Test: relative cell viability (CellMask signal) vs DMSO (fraction of DMSO); higher = less cytotoxic
# Conditions: 50 µM; 24 h
row,Structure (SMILES),relative cell viability
1,O=C(N[C@H](CO)[C@H](O)c1ccc([N+](=O)[O-])cc1)C(Cl)Cl [Chloramphenicol],1.17
2,COc1cc2nccc(Oc3ccc(NC(=O)NC4CC4)c(Cl)c3)c2cc1C(N)=O [Lenvatinib (E7080)],1.12
3,COCCOC(=O)C1=C(C)NC(C)=C(C(=O)OC/C=C/c2ccccc2)C1c1cccc([N+](=O)[O-])c1 (stereo unspecified) [Cilnidipine],0.775

# Test system: HeLa VPS33A R498W KI + HA-SDC1-FLAG;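 further: HA-SDC1 level read out by In-Cell Western staining with an anti-HA antibody against the N-terminal tag, screening FDA-approved library drugs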
# Test: relative GAG core protein HA-SDC1 amount per cell number vs DMSO (fraction of DMSO); HeLa model of a glycosaminoglycan (GAG) storage disease; KI is knock-in and KO knock-out; SDC1 is syndecan 1; higher = more SDC1 (GAG core protein)
# Conditions: 50 µM; 24 h
row,Structure (SMILES),relative GAG core protein HA-SDC1 amount per cell number
1,Cc1ccc2c(c1)c1c(n2CCc2ccc(C)nc2)CCN(C)C1 [Latrepirdine],active: 0.263
2,CCCCC(=O)N(Cc1ccc(-c2ccccc2-c2nnn[nH]2)cc1)[C@H](C(=O)O)C(C)C.CCOC(=O)[C@H](C)C[C@@H](Cc1ccc(-c2ccccc2)cc1)NC(=O)CCC(=O)O,inactive: 0.725
3,"C[C@@H](CN1CC(=O)NC(=O)C1)N1CC(=O)NC(=O)C1 [Dexrazoxane HCl (ICRF-187, ADR-529)]",inactive: 0.948
4,Nc1nc(F)nc2c1ncn2[C@@H]1O[C@H](CO)[C@@H](O)[C@@H]1O [Fludarabine],inactive: 1.04
5,Cc1cc(C(C)(C)C)c(O)c(C(C)(C)C)c1,inactive: 0.756
6,O=C(O)c1cccc(-c2noc(-c3ccccc3F)n2)c1 [PTC124 (Ataluren)],inactive: 1.17
7,COc1ccc2c3c1O[C@H]1C[C@@H](O)C=C[C@@]31CCN(C)C2 [Galanthamine HBr],inactive: 1.12
8,CC1(C)S[C@@H]2[C@H](NC(=O)Cc3ccccc3)C(=O)N2[C@H]1C(=O)O [Penicillin G Sodium],inactive: 1.15
